Data set [1] relates to Japanese patients with type 2 diabetes mellitus. Nature of the data set: 12-week placebo-controlled study of linagliptin monotherapy in Japanese patients. The data set is classed as in vivo, human. To be noted: LI 5 mg, 12 weeks. Here is the method: Of those; 9.4%, 8.8% and 10.0%, respectively, are assessed as being drug-related. […] Body weight is unchanged with both LI 5 mg and 10 mg, −0.39 and −0.06 kg, respectively, which is not sigificantly different vs. PBO (−0.04 kg).

Data set [2] shares this test system. To be noted: week 26.

Where two headings read alike, the source gives them in different places.

On to `CC#CCn1c(N2CCC[C@@H](N)C2)nc2c1c(=O)n(Cc1nc(C)c3ccccc3n1)c(=O)n2C` [linagliptin, 1-[(4-methyl-quinazolin-2-yl)methyl]-3-methyl-7-(2-butyn-1-yl)-8-(3-(R)-amino-piperidin-1-yl)-xanthine], for which the “proportion of patients experiencing at least one adverse event (AE)” value in data set [1] turned out to be 56.0%. The “difference of adjusted mean change from baseline in HbA1c vs. VB” value in data set [2] (LI 5 mg qd) is listed as −0.32%; in data set [2] (LI 10 mg qd), −0.39%.

For the origin of these results see patent publication US9457029B2, “Treatment of genotyped diabetic patients with DPP-IV inhibitors such as linagliptin” (Boehringer Ingelheim International GmbH, priority 2009, dated 2016).
